This is an account of results in US20250296979A1 (VEGENICS, published 2025).

The target of assay [1] is T1, VEGF-C ligand (UniProt P49767 112-227, limits assumed).
T1 sequence (looked up): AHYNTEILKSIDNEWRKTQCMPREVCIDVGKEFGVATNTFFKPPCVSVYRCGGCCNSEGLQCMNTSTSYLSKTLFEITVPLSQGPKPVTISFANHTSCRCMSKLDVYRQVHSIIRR
As to the kind of experiment: ELISA, VEGF-C coated; against OPT-302 reference standard; stored at -20 C, 2 months. As to the method:
(§1) The assay plate was coated overnight with VEGF-C ligand at 0.1 μg/mL or VEGF-D ligand at 1.0 μg/mL. OPT-302 reference standard and test samples were diluted to a starting concentration of 1500 ng/ml and serial 2-fold dilutions are performed covering from 1.5 ng/mL to 1500 ng/mL. The plate was incubated for 60 min at 25° C. and then washed to remove unbound sample. The bound molecules were detected by adding HRP conjugated rabbit anti-human IgG to the assay plate and incubated for 60 min at 25° C. This was followed by the addition of TMB substrate and the assay plates were incubated in the dark for 10 minutes at room temperature. Colour development was stopped by adding 1M HCl stop solution, which was detected by absorbance at 450 nm. The intensity of the yellow colour was proportional to the amount of bound OPT-302 molecules, which in turn reflected the activity of the OPT-302 reference standard or test samples. 4-parameter curves were then generated by plotting the mean values against log10 of the serial 2-fold dilution concentrations. The reportable value was relative potency (%) of the test sample, i.e. the ratio of the EC50 of the reference standard to the EC50 of the test sample.
(ELISA stands for enzyme-linked immunosorbent assay.)

The target in assay [2] is T1, VEGF-C ligand. As to the kind of experiment: ELISA, VEGF-C coated; against OPT-302 reference standard; stored at -20 C, 1 month. As to the method:
as §1

In assay [3] the target is T2, VEGF-D ligand (UniProt O43915 89-205, limits assumed).
T2 sequence (looked up): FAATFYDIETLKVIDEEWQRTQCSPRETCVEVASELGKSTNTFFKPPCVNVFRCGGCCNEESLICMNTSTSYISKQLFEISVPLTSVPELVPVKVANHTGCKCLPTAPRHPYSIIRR
As to the kind of experiment: ELISA, VEGF-D coated; against OPT-302 reference standard; stored at -20 C, 0 months. As to the method:
as §1

Assay [4] concerns the target T2, VEGF-D ligand. As to the kind of experiment: ELISA, VEGF-D coated; against OPT-302 reference standard; stored at -20 C, 0.5 months. As to the method:
as §1

Assay [5] has as its target T1, VEGF-C ligand. As to the kind of experiment: ELISA, VEGF-C coated; against OPT-302 reference standard; stored at -20 C, 0.5 months. As to the method:
as §1

Assay [6] has as its target T2, VEGF-D ligand. As to the kind of experiment: ELISA, VEGF-D coated; against OPT-302 reference standard; stored at -20 C, 1 month. As to the method:
as §1

Assay [7] has as its target T2, VEGF-D ligand. As to the kind of experiment: ELISA, VEGF-D coated; against OPT-302 reference standard; stored at -20 C, 2 months. As to the method:
as §1

B1: OPT-302 (Fc fusion)
chain: YSMTPPTLNITEESHVIDTGDSLSISCRGQHPLEWAWPGAQEAPATGDKDSEDTGVVRDCEGTDARPYCKVLLLHEVHAQDTGSYVCYYKYIKARIEGTTAASSYVFVRDFEQPFINKPDTLLVNRKDAMWVPCLVSIPGLNVTLRSQSSVLWPDGQEVVWDDRRGMLVSTPLLHDALYLQCETTWGDQDFLSNPFLVHITGNELYDIQLLPRKSLELLVGEKLVLNCTVWAEFNSGVTFDWDYPGKQAERGKWVPERRSQQTHTELSSILTIHNVSQHDLGSYVCKANNGIQRFRESTEVIVHE[letters of human IgG1 Fc not shown]
modifications: N-glycosylation at 9-11, 142-144, 227-229, 275-277 and 387-389 (features of SEQ ID NO: 3 in the printed sequence listing)
notes: Tested as formulated drug product after storage; also called soluble VEGFR-3 trap molecule; Formulation 1 (41.5 mg/mL OPT-302 formulation)
For the molecule B1, the “relative potency (EC50 of reference standard / EC50 of test sample)” value is 108% in assay [1]; 118% in assay [2]; 102% in assay [3]; 116% in assay [4]; 126% in assay [5]; 100% in assay [6]. Moreover, in assay [7], the “relative potency (EC50 of reference standard / EC50 of test sample)” value worked out at 106%.
